In paper PMC4242493:
This is one part of the list. The list includes weakly bound sequences.

molecular target: MaxL homodimer (UniProt P61244); assay: universal protein-binding microarray (PBM); details: PBS-based mixture, 10 nM His-tagged protein dimer, 2% milk, 200 ng/uL BSA, 50 ng/uL salmon testes DNA, 0.02% TX-100; detection with Alexa 488 anti-His …; high values mean tight binding; most listed sequences are background and not binding sites; double strand, one strand shown
Chain of UniProt P61244 (P61244 whole entry): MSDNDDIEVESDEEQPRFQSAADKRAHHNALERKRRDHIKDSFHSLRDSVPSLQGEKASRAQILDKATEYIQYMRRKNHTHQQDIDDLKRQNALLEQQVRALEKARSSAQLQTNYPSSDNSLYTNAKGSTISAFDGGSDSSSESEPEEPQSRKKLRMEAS

Row | Sequence | binding signal (normalized occupancy)
1 | GGGCTGGA | 0.0746
2 | ACTTCGGC | 0.0678
3 | CGAGCCGA | 0.0667
4 | CTCGGGGA | 0.0713
5 | ACGTAGAA | 0.0765
6 | CGCGTTCC | 0.075
7 | ATACGATG | 0.0797
8 | GTCATGTA | 0.089
9 | AGTCACAG | 0.0732
10 | AACGGAGG | 0.0699
11 | AAAGCAAG | 0.0736
12 | CAAGCCCA | 0.0752
13 | TGAAATAA | 0.0855
14 | AAACACTG | 0.0755
15 | ATCTATTA | 0.0771
16 | AAGGGCCA | 0.0716
17 | CTGGACAA | 0.0742
18 | ATACTTTC | 0.0743
19 | CCAGGTTC | 0.0694
20 | GGCCACAC | 0.0814
21 | CATGGGCA | 0.0855
22 | ACGAGCCG | 0.0732

Row | Sequence | binding signal (normalized occupancy)
23 | AAATAATC | 0.0702
24 | ATGGCGTA | 0.0819
25 | ACCGGATC | 0.077
26 | CATAGCGA | 0.0712
27 | CGCCGCAG | 0.0695
28 | GACGTCTA | 0.0676
29 | CAGAGCGC | 0.0678
30 | GGCTTTAC | 0.0682
31 | ATTGCTGG | 0.0736
32 | CACCCAAG | 0.0768
33 | AACTAGGA | 0.0703
34 | CGAGCATA | 0.0801
35 | ACGCACAA | 0.0775
36 | CGTGAGGC | 0.0793
37 | AGTATACG | 0.0759
38 | GTATGATA | 0.0877
39 | AGTCAGAA | 0.0697
40 | AAGCAGAT | 0.075
41 | CCTGAGAG | 0.0683
42 | AACCGCTT | 0.0681
43 | AAATTGTC | 0.0726
44 | CCGTCTAC | 0.0743

Row | Sequence | binding signal (normalized occupancy)
45 | GGTTAACC | 0.0626
46 | GTTGCGGA | 0.0704
47 | CCCGTCGC | 0.0748
48 | CTTGTTCA | 0.0802
49 | AACATTAG | 0.084
50 | ATTAGACC | 0.0748
51 | CCTCGGGA | 0.0708
52 | CGAGTTTC | 0.0741
53 | GATTACCC | 0.0775
54 | ACGAGGGA | 0.0859
55 | AGGTCTAG | 0.0748
56 | AGCAGGAT | 0.0756
57 | AACTTAGA | 0.0798
58 | CAGACGCG | 0.0719
59 | GTGTATAA | 0.0894
60 | ATATCCCG | 0.0823
61 | GATGTAGC | 0.0756
62 | CCACGGCG | 0.0744
63 | ATTTAGAA | 0.0725
64 | GTGACCTA | 0.0721
65 | CCATAAAG | 0.0766
66 | CCGCATCC | 0.0787

Row | Sequence | binding signal (normalized occupancy)
67 | CGTGAGGA | 0.0851
68 | GATGAAGA | 0.0781
69 | CGGGCGTC | 0.0677
70 | CATTGGCA | 0.0773
71 | GCCCCTAC | 0.0783
72 | AGCGCTAG | 0.0678
73 | CTGGATTA | 0.0761
74 | ATAATTGC | 0.0766
75 | TATCCGGA | 0.0736
76 | CGTTTAAG | 0.071
77 | CATAGTGG | 0.0803
78 | CAAGCTCA | 0.0677
79 | ATCTCGAA | 0.0761
80 | CGTAAGGA | 0.0707
81 | TATTATGA | 0.0862
82 | AGATGAAA | 0.0835
83 | GCGTACCA | 0.0747
84 | CACGGTAA | 0.077
85 | CTACCAAA | 0.0708
86 | CTTTATTA | 0.0798
